Source: PubChem BioAssay AID488969 (Vanderbilt High Throughput Screening Facility, 2010)
Over roughly 110,000 compounds, “z-score” has its median near -0.1; the highest 2% begin near 2. Some of the results follow.

Target: Metabotropic glutamate receptor 8 (Rattus norvegicus) (UniProt P70579)
Assay: rat mGluR8 modulators via GIRK flux, primary screen, cell-based, thallium flux, HTS (AID 488969)
Conditions: HEK293 rat mGluR8, GIRK (G protein-gated inwardly rectifying potassium channel) thallium flux, FluoZin2; at 10 µM; stronger effect = higher value; submaximal glutamate (EC20) added with thallium

UniProt P70579, sequence (P70579 whole entry, looked up): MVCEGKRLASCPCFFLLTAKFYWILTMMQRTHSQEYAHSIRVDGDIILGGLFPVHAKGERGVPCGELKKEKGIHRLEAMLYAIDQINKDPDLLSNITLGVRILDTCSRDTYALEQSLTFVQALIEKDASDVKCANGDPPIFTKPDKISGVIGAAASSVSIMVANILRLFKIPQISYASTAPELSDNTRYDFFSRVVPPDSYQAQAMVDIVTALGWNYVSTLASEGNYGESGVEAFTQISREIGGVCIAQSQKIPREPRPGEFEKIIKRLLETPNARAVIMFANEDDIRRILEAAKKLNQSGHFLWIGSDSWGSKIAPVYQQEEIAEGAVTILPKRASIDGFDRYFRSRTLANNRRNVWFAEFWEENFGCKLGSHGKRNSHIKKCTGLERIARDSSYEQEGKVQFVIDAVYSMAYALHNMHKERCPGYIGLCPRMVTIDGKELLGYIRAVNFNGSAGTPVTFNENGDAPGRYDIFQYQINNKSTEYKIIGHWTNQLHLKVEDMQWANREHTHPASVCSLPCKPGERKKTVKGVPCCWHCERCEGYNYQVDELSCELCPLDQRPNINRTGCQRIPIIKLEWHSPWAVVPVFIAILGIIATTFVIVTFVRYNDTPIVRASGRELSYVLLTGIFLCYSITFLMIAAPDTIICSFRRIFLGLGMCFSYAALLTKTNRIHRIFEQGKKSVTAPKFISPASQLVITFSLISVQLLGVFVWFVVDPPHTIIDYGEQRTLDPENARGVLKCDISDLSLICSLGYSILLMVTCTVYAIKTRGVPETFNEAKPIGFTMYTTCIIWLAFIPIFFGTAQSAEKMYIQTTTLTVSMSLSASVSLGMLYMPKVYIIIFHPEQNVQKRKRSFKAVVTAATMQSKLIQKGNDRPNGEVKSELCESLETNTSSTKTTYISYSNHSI

SMILES	z-score
O=C(O)CCC(NC(=O)C(Cc1ccc2c(c1)OCO2)NC(=O)c1ccccc1)C(=O)O (stereo not drawn)	-0.0783
Cc1cc(C)c(S(=O)(=O)c2ccccc2C(=O)O)c(C)c1	1.21
COC(=O)C(Cc1ccc(OC(=O)c2ccccc2Cl)cc1)N1Cc2ccccc2C1=O (stereo not drawn)	-2.16
CC(=O)c1cc(-c2ccccc2)n(CC(=O)N2CCN(C3CCCC3)CC2)c1C	-0.473
CC(C)CC(NC(=O)OC(C)(C)C)C(=O)NCc1ccccc1 (stereo not drawn)	0.346
Cc1ccc(S(=O)(=O)NCC(C)NS(=O)(=O)c2ccc(C)cc2)cc1 (stereo not drawn)	2.8
Cc1cccc(C(=O)O/N=C2\CCCc3ccccc32)c1	-0.0944
Clc1ccc(Cc2ccccc2)nn1	0.0291
CCC(CC)C(=O)Nc1ccccc1-n1cccc1	0.227
Cc1ccc(C)c(CS(=O)(=O)c2cn(CC(=O)N3CCC(C)CC3)c3ccccc23)c1	-0.551
CCOC(=O)Cc1cc(=O)n2[nH]c(-c3ccc(Cl)cc3)cc2n1	-0.486
COc1ccccc1C(=O)N1CC2(C)CC1CC(C)(C)C2 (stereo not drawn)	-0.263
COc1ccc(NS(=O)(=O)c2cccc(C(=O)N/N=C(\C)c3ccncc3)c2)cc1	-0.124
Cc1onc(-c2ccccc2)c1C(=O)N1CCOCC1	-0.272
CCCN(CC(=O)Nc1ccc(C(N)=O)cc1)CC(=O)Nc1ccc(Cl)cc1Cl	-0.265
CSc1ccc(CNC2CC2)cc1	-0.218
Cc1ccccc1N(CC(=O)N/N=C/c1cc(C)n(-c2ccccc2C)c1C)S(C)(=O)=O	-0.854
CN1CCN(/C=N/C2=C(C#N)C(c3ccccc3)C3=C(CC(C)(C)CC3=O)O2)CC1 (stereo not drawn)	0.0919
Cc1cc(C(=O)c2ccccc2)c(NC(=O)CCl)s1	-0.02
Cc1nc2ccc(NC(=O)N3CCCCC3)cc2s1	0.236
COc1ccccc1OCC(=O)N/N=C1/SCC(=O)N1Cc1ccccc1	-0.336
Cc1cc(C)c(-c2csc(Cc3nc(-c4cc5ccccc5oc4=O)cs3)n2)cc1C	-0.0426
O=C(CSCc1c(Cl)cccc1Cl)NCC1CCCO1 (stereo not drawn)	0.4

SMILES	z-score
COc1cccc(C2=NN(C(=O)c3ccccc3)C(O)(C(F)(F)F)C2)c1 (stereo not drawn)	2.79
CCC(C)(C(=O)NC1CCCCC1)N(Cc1cccs1)C(=O)c1ccc(=O)[nH]c1 (stereo not drawn)	-1.13
C/C(=N/Nc1cc(-c2ccccc2)nc(-c2ccccc2)n1)c1ccc(O)cc1	-0.24
CCOc1cccc(C(=O)Nc2nnc(-c3cccs3)s2)c1	-0.0225
CCOCCCNC(=O)c1cn(C)c2ccc(S(=O)(=O)N(C)C3CCCCC3)cc2c1=O	-0.205
Cc1ccc(SCCC(=O)NCC2CCCO2)cc1 (stereo not drawn)	0.277
CCOc1cc(CNCCN(C)C)c(Cl)cc1OCC(=O)NCCc1ccccc1	-0.307
COc1ccc(OC)c(S(=O)(=O)N2CCC(C(=O)N3CCN(Cc4ccccc4)CC3)CC2)c1	0.163
Cc1ccc(N2C(=O)C3Sc4[nH]c(=O)sc4C(c4ccccc4)C3C2=O)cc1 (stereo not drawn)	-0.0232
O=C(Cc1cccc2ccccc12)Nc1nc2ccccc2[nH]1	-0.343
CN1CCN(CC(O)COCc2ccc3c(c2)OCO3)CC1 (stereo not drawn)	0.1
O=C(Cn1nnc(-c2ccccc2)n1)OCc1ccccc1	-0.682
CCC(C)S(=O)(=O)c1snnc1C (stereo not drawn)	-0.203
N#C/C(=C/c1ccc(N2CCOCC2)o1)C(=O)N1CCOCC1	-0.81
COCCn1c(=NC(=O)c2ccco2)sc2cc(C(=O)OC)ccc21	-0.298
CCCCOC(=O)CCN1C(=O)/C(=C2\SC(=S)N(CCC(=O)OCCCC)C2=O)SC1=S	0.0657
COc1ccc2cnnc(SCC(=O)Nc3ccc(C(C)=O)cc3)c2c1OC	0.233
O=C1CCC/C1=C/Nc1ccc2c(c1)OCO2	-0.133
Oc1nc(Nc2cccc(Cl)c2)sc1/C=C1\C=Nc2ccccc21	-0.421
CN=C(Nc1cccc(OC)c1)SC1CC(=O)N(c2ccc(C(=O)O)cc2)C1=O (stereo not drawn)	0.144
CC(NC(=O)Cn1nc(C(F)(F)F)c2c1CCC2)c1ccccc1 (stereo not drawn)	-0.132
CCC(CC)c1nc(NCCC(=O)O)c2ccccc2n1	0.794
CN(C)S(=O)(=O)c1ccc(NC(=O)c2cc3ccccc3o2)cc1	-0.429

SMILES	z-score
COC(=O)C1=C(C)NC2=C(C(=O)CC(C)(C)C2)C1c1cccc(C)n1 (stereo not drawn)	-0.0115
O=C(c1ccc2c3c(cccc13)CC2)N1CCOCC1	-0.642
CCOC(=O)COc1ccc([N+](=O)[O-])cc1	0.183
Cc1ccc(CC(=O)Nc2ccccc2-c2ccccc2)cc1C	0.122
Cc1ccc(CN2CCN(C(=O)C3CCC3)CC2)cc1	-0.128
Cc1ccc(NC(=O)Cn2nc(C)c3ccccc3c2=O)c(C)c1	-0.883
O=c1c2ccccc2[nH]c(=S)n1Cc1cccs1	2.21
CCC(C)C(=O)Nc1nc(C)c(-c2csc(Nc3cc(OC)ccc3OC)n2)s1 (stereo not drawn)	0.2
COC(=O)c1c(-c2ccc(F)cc2)csc1NC(=O)c1ccco1	-0.518
CC(NC(=O)COC(=O)c1cc(NS(=O)(=O)c2ccc(Cl)c([N+](=O)[O-])c2)ccc1O)C1CC2CCC1C2 (stereo not drawn)	-0.436
Cc1nc2nc(-c3ccc(Cl)cc3)[nH]n2c(=O)c1C	-0.115
O=C(O)c1ccccc1SC1CC(=O)N(C2CCCCC2)C1=O (stereo not drawn)	-0.0935
CCC(C)NC(=O)c1c(N)n(/N=C/c2ccccn2)c2nc3ccccc3nc12 (stereo not drawn)	0.186
COC(=O)N/N=C/c1ccccc1OCc1ccccc1	-0.0109
O=C(CN(Cc1ccccc1)S(=O)(=O)c1ccccc1)N1CCOCC1	-0.108
O=C(COc1ccc2ccccc2c1)NC1CC1	-0.0157
CCN(CC)S(=O)(=O)c1ccc2oc(C(=O)NC3CCCc4ccccc43)c(C)c2c1 (stereo not drawn)	-0.242
O=C(COc1cccc2cccnc12)NCC(F)(F)F	0.409
CCc1noc(C)c1C(=O)Nc1nc(-c2cc(C)ccc2C)c(C)s1	-0.199
CC(=O)NNC(=O)CCC(=O)Nc1ccccc1	-0.0343
O=C(NC(C(=O)O)c1ccccc1)c1ccc(S(=O)(=O)N2CCOCC2)cc1 (stereo not drawn)	-0.0595
COc1ccc(/C=C/c2nc(N)nc(-c3ccccc3O)n2)cc1	0.184
Cc1ccc(C(=O)c2cn(-c3ccc(F)c(Cl)c3)nn2)cc1	-0.0467

SMILES	z-score
COc1ccc(OCCC(=O)Nc2cc(C)on2)cc1	-0.194
COc1cccc(CN2CCN(C(=O)c3ccc(-c4ccccc4)cc3)CC2)c1	-0.132
CCN(CC)C(=O)Cn1c(=O)n(-c2ccccc2)c(=O)n1CC(=O)N(CC)CC	-0.312
Cc1cccc(NC(=O)CSc2ccc(-c3ccco3)nn2)c1	-0.359
CC1(C)CC(=O)C=C(NNC(=O)c2ccc(N)cc2)C1	-0.139
Cc1nc2ccccc2c(=O)n1NC(=O)c1ccc(F)cc1Cl	0.00649
Cc1nnc(NC(=O)c2ccc3c(c2)C(=O)N(CC2CCCO2)C3=O)s1 (stereo not drawn)	0.56
O=[n+]1cc(-c2ccc(Cl)cc2)n([O-])c2c1CCCCC2	0.282
CN(C)CCC(=O)NCC1OCCc2ccccc21 (stereo not drawn)	-0.0528
C=COCCNC(=O)C(=O)NCC(C)C	-0.36
N#CCC(CNc1ncc(C(F)(F)F)cc1Cl)OC(=O)c1c(F)cccc1F (stereo not drawn)	-0.143
CC(=O)c1ccc(S(=O)(=O)Nc2cccc(S(=O)(=O)NC3=NCCC3)c2)cc1	0.128
O=C1/C(=N\O)Cc2ccccc21	-0.171
Cc1nn(-c2ccc(F)cc2)c(Cl)c1/C=C(\CC(=O)O)c1nc2ccccc2s1	-0.0248
c1ccc2sc(NC3=NCN(C4CCCCC4)CN3)nc2c1	-0.12
O=c1[nH]c(CN2CCCCC2)nc2c1C1(CCCC1)Cc1ccccc1-2	1.19
Cc1[nH]n(-c2ccc(Cl)cc2)c(=O)c1C=NC12CN3CN(CN(C3)C1)C2	-0.111
Cc1cc(S(=O)(=O)NCCCN2CCOCC2)ccc1F	-0.474
Cc1nc(N)sc1C(=O)N/N=C/c1ccco1	-0.216
Cc1ccc(OCCCC(=O)Nc2ccc(Br)cc2)cc1	-0.235
CCCOc1cc(C)c(Cl)cc1S(=O)(=O)N(CC)CC	-0.466
O=C(Nc1ccc(N2CCOCC2)c(Cl)c1)c1ccc(F)cc1	-0.0435
O=C(Nc1ccc(Cl)c(Cl)c1)OCc1cncs1	-0.767

SMILES	z-score
CC(=O)N/N=C/c1ccc(OCCOc2ccc(Br)cc2)cc1	-0.00368
CCN(CC)C(=O)N1CCN(S(=O)(=O)c2ccc(C)c(C)c2)CC1	-0.245
N#Cc1cn(CC(=O)N2CCCc3ccccc32)c2ccccc12	-0.701
CC(C)(C)OC(=O)N[C@@H](Cc1c[nH]c2ccccc12)c1nnc(SCC(N)=O)o1	-0.161
Cc1sc2nc3c(C(=O)N4CCN(c5ccccn5)CC4)cccn3c(=O)c2c1C	-0.411
Cc1cccc2cc(C#N)c(SCC(=O)NNC(=O)Cc3ccccc3)nc12	-0.161
CCCn1c(N2CCC(Cc3ccccc3)CC2)nc2c1c(=O)[nH]c(=O)n2C	-0.364
COc1ccc(OC)c(CN2CCCC(CO)C2)c1 (stereo not drawn)	-0.533
Cc1ccc(CN2CC(C(=O)O)CC2=O)cc1 (stereo not drawn)	-0.155
CCCCCc1nnc(N)s1	0.176
Cc1ccc2c(SCC(=O)NCc3ccco3)nc(-c3ccc(F)cc3)nc2c1	-0.411
Cc1cccc(NC(=S)NCCc2c[nH]c3ccccc23)c1	0.201
CCCOC(=O)CN1C(=O)c2ccc(C(=O)OCCC)cc2C1=O	-1.4
O=C(Nc1ccccc1N1CCOCC1)c1ccccc1NS(=O)(=O)c1ccc(F)cc1	-0.112
O=C1c2ccccc2COc2ccc(O)cc21	0.201
Cn1cccc1/C=C1\SC(=S)N(NC(=O)c2ccccc2)C1=O	0.205
Cc1ccc(N2CN=c3s/c(=C\c4cccnc4)c(=O)n3C2)cc1	0.209
COc1cccc(NC(=O)CSc2nnc(CN3CCOCC3)n2C)c1	0.89
Cc1ncc([N+](=O)[O-])n1CCOC(=O)c1ccc(Cl)cc1Cl	-0.221
CCC(C)NC(=O)CCSCCC(=O)NC(C)CC (stereo not drawn)	0.331
CCOc1ccc(/C(O)=C2/C(=O)C(=O)N(CCOCCO)C2c2ccccn2)cc1 (stereo not drawn)	0.208
